Experimental data: ChEMBL document CHEMBL1156829
Whole data set: some 5,400 compounds, median “IFI” near 2, cut for the highest 2% near 22. Some of the results follow.

assay: NOVARTIS: Inhibition Frequency Index (IFI) - the number of HTS assays where a compound showed > 50% inhibition/induction, expressed as a percentage of the number of assays in which the compound was tested.; type: functional

Compound | IFI
CS(=O)(=O)N1CCCCC1C(=O)NCc1ccc(OC2CCN(CC(c3ccccc3)c3ccccc3)CC2)cc1 (configuration not stated) | 2.86%
CS(=O)(=O)N(CCc1ccccc1)CC(O)CN1CCC(CNC(=O)NC(c2ccccc2)c2ccccc2)CC1 (configuration not stated) | 2.91%
O=C(Nc1c(C(=O)Nc2cccc(Cl)c2)oc2ccccc12)c1cc(-c2ccccc2O)n[nH]1 | 0%
CCCCCCCCOC(=O)NCCCCCCNC(=O)OCCCCCCCC | 5.88%
Clc1cccc(CSc2nc(Nc3ccc4c(c3)OCO4)c3ccccc3n2)c1 | 0%
CCOC(=O)c1ccc(NC(=O)CSc2nc(NCc3ccccc3)c3ccccc3n2)cc1 | 0%
N#Cc1cc(-c2cccc(C(F)(F)F)c2)cn(Cc2c(Cl)cccc2Cl)c1=O | 5.26%
COc1ccc(CN2C[C@H](Sc3nc4ccccc4[nH]3)C[C@H]2C(=O)NC2CC2)cc1C | 14.4%
CSC1=C(C#N)C(c2ccc(O)cc2)CC(=O)N1 (configuration not stated) | 0.741%
CCc1nc(N)nc(N)c1-c1ccccc1 | 0%
COc1cccc(/C=C2/SC(=Nc3ccccc3)NC2=O)c1OC | 4.54%
CCn1cc(C(=O)N2CCC(C(=O)c3nccs3)CC2)c(C)n1 | 0%
OCc1nc2ccccc2n1CCOc1ccccc1 | 0.794%
COc1ccc2nc(-c3ccccc3)cc(NCCN(C)C)c2c1 | 3.51%
CCOC(=O)COC1=C(CCCCC2CCCCC2)C(=O)c2ccccc2C1=O | 2.27%
COc1ccc2nc(NC(=O)c3ccc(C#N)cc3)sc2c1 | 1.02%
CN(C)c1ccc(/C=C2/SC(=Nc3ccccc3)NC2=O)cc1 | 3.45%
CCOC(=O)C1=C(CC)NC2=C(C(=O)CC(C)(C)C2)C1c1ccccc1F (configuration not stated) | 4.6%
COc1cc(CN(CCCN2CCOCC2)C(=O)Nc2cccc(C)c2)ccc1OCc1ccccc1 | 1.77%
CC(C)N(CC(=O)Nc1cc(C(C)(C)C)nn1-c1ccc(Cl)c(Cl)c1)C(=O)c1ccc(Cl)c(Cl)c1 | 1.85%
Cc1ccc(-c2cc(C(=O)OCC(=O)c3cccc([N+](=O)[O-])c3)c3cc(C)ccc3n2)cc1 | 0%

Compound | IFI
CN(CCCNc1ccnc2cc(Cl)ccc12)C(=O)c1ccc(Cl)cc1 | 6.48%
CCOc1ccc(-c2cc(C)[n+](CCO)c(-c3ccc(OCC)cc3)c2)cc1 | 7.27%
COc1ccc(C2C(C(=O)Nc3cccc(Cl)c3)c3ccccc3C(=O)N2C2CCCCC2)cc1 (configuration not stated) | 0%
CCOC(=O)C1=C(C)NC2=C(C(=O)C(C(=O)OCC)C(c3cccc(OC)c3)C2)C1c1ccc([N+](=O)[O-])cc1 (configuration not stated) | 1.16%
CCOC(=O)c1ccc(N(C(=O)Cc2c[nH]c3ccccc23)C(C(=O)NC2CCCCC2)c2cccnc2)cc1 (configuration not stated) | 3.7%
CC1C/C(=C/c2ccncc2)C(=O)/C(=C/c2ccncc2)C1 (configuration not stated) | 33.3%
CCOC(=O)c1cnc2ccc(OC)cc2c1Nc1ccc(N2CCN(C)CC2)cc1 | 1.41%
O=C(Nc1ccc(Oc2cccc(Oc3ccc(NC(=O)c4ccc(Br)o4)cc3)c2)cc1)c1ccc(Br)o1 | 0%
Cc1ccc(C2CC(C(F)(F)F)n3ncc(C(=O)Nc4ccc(Cl)cc4)c3N2)cc1 (configuration not stated) | 0%
C=CCNC(=O)c1ccc2c(c1)N=C(c1ccc(F)cc1)N(CCCC)C2 | 1.22%
CCN(CC)C/C=C/C1(O)c2ccccc2-c2ccccc21 | 0%
Cc1cccc(NC(c2cccc(F)c2)c2ccc3cccnc3c2O)n1 (configuration not stated) | 0%
CCN(CC)CCCNC(=S)N(CCN(C)C)Cc1cc2cc(C)cc(C)c2[nH]c1=O | 3.39%
CCc1ccc2[nH]c(=O)c(CN(CCN(CC)CC)C(=S)NCCCN(CC)CC)cc2c1 | 4.63%
O=[N+]([O-])c1ccc(NCCNc2nc(N3CCCC3)nc3ccccc23)cc1 | 0%
c1ccc(N=c2sc(-c3ccccc3)cn2CCCCCCn2cc(-c3ccccc3)sc2=Nc2ccccc2)cc1 | 0%
CC1(C)Cc2c(oc3ncn(CCn4cnc5oc6c(c5c4=N)CC(C)(C)SC6)c(=N)c23)CS1 | 0%
CC1=C(C(=O)OC2CCCCC2)C(c2ccc(F)c(F)c2)C2=C(CCCC2=O)N1 (configuration not stated) | 2.35%
CC1CCC2C(C)C(O)OC3OC4(C)CCC1C32OO4 (configuration not stated) | 7.55%
O=C(N/C(=C/C=C/c1ccccc1)C(=O)N1CCCCC1)c1ccc([N+](=O)[O-])cc1 | 0.685%
CN1CCN(CCCNc2ccnc3cc4ccccc4cc23)CC1 | 18.8%

Compound | IFI
c1ccc(Nc2nc(NCC3CCCO3)c3ccccc3n2)cc1 (configuration not stated) | 0%
O=C1C(O)=CC(=Nc2ccc(Cc3ccncc3)cc2)c2ccccc21 | 7.14%
CC(=O)Nc1ccc2nc(C)sc2c1 | 0%
OCCNCCNCc1ccc2[nH]c3ccccc3c2c1 | 0%
Cc1nc2c(c(C)nn2C)c(C)c1CCC(=O)N1CCCC1 | 5.56%
COc1ccc(C2CC(=O)C3=C(C2)NC(C)=C(C(=O)OC(C)C)C3c2ccccc2Br)cc1OC (configuration not stated) | 3.53%
Nc1ccc2nc3ccc(N)cc3[s+]c2c1 | 9.09%
CCCCCCCCC(=O)NCCCCNc1ccnc2cc(Cl)ccc12 | 2.86%
C=CCOc1cccc(/C=C2/NC(C)=C(C(=O)OCC)C2=O)c1 | 0%
CCOC(=O)c1cnc2c(C)cc(Cl)cc2c1Nc1ccc(OC)c(OC)c1 | 0%
COc1cc2ncnc(NC3CCN(Cc4ccccc4)CC3)c2cc1OC | 2.4%
CCCN1CCC(N2C[C@@H](NCc3ccc4c(c3)c3ccccc3n4CC)C[C@H]2C(=O)NCC)CC1 | 4.9%
COc1ccc(-c2cc(-c3ccccc3)nc(SCC(=O)N3c4ccccc4Sc4ccc(Cl)cc43)c2C#N)cc1 | 0%
CC(C)NC(=O)N1CCN(C(=O)C(Cc2c[nH]c3ccccc23)NC(=O)Nc2cccc(Cl)c2Cl)CC1C (configuration not stated) | 1.89%
CC(C)N1CCCc2cc(CN3CCC(n4cc(C(=O)NCCCO)nn4)CC3)ccc21 | 2.61%
CCCOC(=O)C1=C(C)NC2=C(C(=O)CC(c3ccc(OC)c(OC)c3)C2)C1c1ccccc1Br (configuration not stated) | 3.57%
c1ccc(N=Nc2nnc(Nc3ccccc3)s2)cc1 | 0%
CCN1/C(=C/c2cccc[n+]2C)C=Cc2ccccc21 | 8.33%
CN(c1ccc(Br)cc1)S(=O)(=O)c1ccc2[nH]cc(C(=O)N3CCN(c4ccccc4)CC3)c(=O)c2c1 | 5.13%
Cc1ccccc1N(CC(=O)NCC1CCCO1)C(=O)c1snc(C(N)=O)c1N (configuration not stated) | 3.74%
